Data reported in PubChem BioAssay AID493208 (National Center for Advancing Translational Sciences (NCATS), 2011).
Screen size: about 44,000 compounds; about 340 (0.77%) were called active. This list was built around the results that the source calls inconclusive (neither active nor inactive); the mix of calls is not that of the screen. The call rests on the fitted dose curve; in most records, active means well fitted inhibition curve with a large enough effect; inconclusive means small, poorly fitted or top-dose-only effect; inactive means flat fitted curve, though single readings scatter. Potencies of inconclusive entries are left out as doubtful fits.

Test: Acumen qHTS Assay for Inhibitors of the mTORC1 Signaling Pathway in MEF (Tsc2-/-, p53-/-) Cells: Sytravon; further: nearly all actives have a fitted effect of over 50% in size;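 on activity change, negative = inhibition: plate controls were DMSO for no effect and rapamycin for full effect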
Details: phospho-rpS6 immunofluorescence/PI, 24 h; series mostly up to 38.3 µM; activity change, negative = inhibition: at the top concentration
In short: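 Tsc2-/-, p53-/- MEFs (empty-vector stable line) in DMEM + 10% FBS were treated with compounds 24 h at 37 degree Celsius, fixed, and immunostained for phospho-rpS6 (Alexa-488) with propidium iodide counterstain. Laser-scanning cytometry gave % positive cells, normalized against 7.5 nM rapamycin and DMSO.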
Potency means the concentration at half of the fitted maximal effect; tags describe the fitted curve by direction and shape.

SMILES	Potency	activity change, negative = inhibition
O=C(CN1C(=O)CC(c2ccccc2)=Nc2ccccc21)Nc1ccc(Br)cc1	inconclusive [falling, single point]	–
CCC1CCCCN1C(=O)CSc1n[nH]c(-c2ccccc2)n1 (configuration not stated)	inconclusive [falling, single point]	–
Cc1ccccc1CN1CCC(CNC(=O)c2cc3ccc4cccnc4c3[nH]2)CC1	inconclusive [falling, single point]	–
COc1ccccc1NC(=O)c1sc2nc(C)c(C(=O)Nc3ccc(Cl)cc3)c(-c3ccc(Br)cc3)c2c1N	–	inactive: 0%
Cc1ccccc1C(=O)NCC(c1ccc(N(C)C)cc1)N1CCCC1 (configuration not stated)	inconclusive [activator, single point]	–
O=S(=O)(NCC(c1ccco1)S(=O)(=O)c1ccccc1)c1cc(F)ccc1F (configuration not stated)	inconclusive [falling, single point]	–
O=C(NCc1ccc(F)cc1)c1ccc2c(c1)N(Cc1ccc(F)cc1Cl)C(=O)CS2	inconclusive [falling, single point]	–
Cc1ccc(CN2C(=O)SC(Nc3ccccc3)C2=O)cc1 (configuration not stated)	inconclusive [falling, partial curve, poor fit]	–
O=C(NCc1ccccc1)c1cccc(Nc2nc3ccccc3n3nnnc23)c1	–	inactive: -3.04%
Cc1ccc2nc(N3CCC(C(=O)N4CCN(c5cccc(C)c5C)CC4)CC3)[nH]c2c1	inconclusive [falling, partial curve, poor fit]	–
Cc1cc(C)cc(NC(=O)C(=O)NCC(c2ccc3c(c2)OCO3)N2CCN(C)CC2)c1 (configuration not stated)	inconclusive [falling, single point]	–
Cc1ccccc1S(=O)Cc1ccc(C(=O)N2CCN(c3cccc(C)c3C)CC2)o1 (configuration not stated)	inconclusive [falling, full curve]	–
Cc1cc(C)c(NC(=O)Cn2cc(S(=O)(=O)Cc3ccccc3F)c3ccccc32)c(C)c1	inconclusive [falling, partial curve, poor fit]	–
Cc1cccc(N(CC(O)Cn2c3ccccc3c3ccccc32)S(=O)(=O)c2ccc(F)cc2)c1 (configuration not stated)	inconclusive [falling, single point]	–
Cc1cc(OCC(=O)NCC2(N3CCN(C)CC3)CCCCC2)cc(C)c1Cl	active: 5.85 µM	–
CCCN1C(=O)C(Cc2nc3ccccc3c(=O)n2CC)c2ccccc21 (configuration not stated)	inconclusive [falling, single point]	–
CCCOc1ccc(N2CC(C(=O)Nc3cccc(Cl)c3Cl)CC2=O)cc1 (configuration not stated)	inconclusive [falling, single point]	–
O=C(Nc1cc(F)ccc1F)C1CCN(c2nc3ccccc3n3cccc23)CC1	inconclusive [falling, single point]	–
CC(C)NC(=O)Nc1ccc2c(c1)N(C)C(=O)c1ccccc1S2	inconclusive [falling, partial curve, poor fit]	–
O=C(C1CCC(CNS(=O)(=O)c2ccc(Br)s2)CC1)N1CCN(c2ccccc2)CC1 (configuration not stated)	inconclusive [falling, single point]	–
O=C(Cn1c(=O)n(Cc2ccc3c(c2)OCO3)c(=O)c2ccccc21)Nc1cccc(Cl)c1	inconclusive [falling, partial curve, poor fit]	–

SMILES	Potency	activity change, negative = inhibition
CCOC(=O)c1c(C)[nH]c(CCC(=O)NCCCN2CCN(c3cccc(Cl)c3)CC2)c1C	–	inactive: 0.601%
Oc1cccc(C(Nc2ccccn2)c2ccc3cccnc3c2O)c1Cl (configuration not stated)	inconclusive [falling, full curve, poor fit]	–
CCOc1ccc(CNC(=O)C2CCN(S(=O)(=O)c3c(C)noc3/C=C/c3ccc(C)cc3)CC2)cc1OC	–	inactive: 5.23%
COc1cc(OC)cc(C(=O)Nc2cc3nn(-c4ccccc4)nc3cc2Cl)c1	inconclusive [falling, partial curve, poor fit]	–
CCCS(=O)(=O)c1ncc(Cl)c(C(=O)N(Cc2ccccc2)Cc2ccco2)n1	active: 16.5 µM	–
CCOc1ccc(-c2oc3ccccc3c(=O)c2O)cc1OCC	inconclusive [falling, single point]	–
Cc1cc(NC(=O)N2CC=C(c3c[nH]c4ccccc34)CC2)ccc1Br	inconclusive [falling, partial curve, poor fit]	–
CC(=O)N1c2ccc(S(=O)(=O)NCC3CCC(C(=O)NCCC(C)C)CC3)cc2CC1C (configuration not stated)	inconclusive [falling, partial curve, poor fit]	–
COc1cccc(CNC(=O)C2Cc3cc(S(=O)(=O)N4CCCCCC4)ccc3N2C(C)=O)c1 (configuration not stated)	inconclusive [falling, single point]	–
O=C(Nc1nnc(S(=O)(=O)N2CCOCC2)s1)c1cccc(F)c1	inconclusive [falling, partial curve, poor fit]	–
CCCCOc1ccc(C(=O)NCC2(N3CCN(C)CC3)CCCCC2)cc1	inconclusive [falling, single point]	–
CCOC(=O)C1CCN(c2nc(-c3ccc(Br)cc3)nc3ccccc23)CC1	–	inactive: -0.745%
COc1cccc(CNC(=O)CCS(=O)(=O)c2cc3c(cc2C)NC(=O)CO3)c1	inconclusive [falling, single point]	–
COc1ccc(S(=O)(=O)N(Cc2nc(-c3cccc(C)c3)no2)C2CCCCC2)cc1	inconclusive [falling, single point]	–
CCN(CCCNC(=O)c1cc2c(=O)[nH]c3ccccc3c2s1)c1ccccc1	inconclusive [falling, partial curve, poor fit]	–
Cc1c2cnn(CC(=O)NCc3ccccc3)c(=O)c2c(C)n1Cc1cccc(Cl)c1	inconclusive [falling, partial curve]	–
COc1cccc(CNCCSc2nnnn2C)c1OCc1ccc(Cl)cc1Cl	inconclusive [falling, single point]	–
CCn1c(CNC(=O)c2ccc(OC)cc2)nnc1SCC(=O)Nc1cccc(C)c1C	–	inactive: -0.919%
Cc1cc(C)cc(C(=O)Nc2ccc(-c3cn4cccnc4n3)cc2)c1	inconclusive [falling, single point]	–
COc1ccc(NC(=O)c2oc3ccccc3c2NC(=O)Cc2ccc(F)cc2)c(OC)c1	inconclusive [falling, full curve, poor fit]	–
CCN1CCN(c2cc(C)c3cc(NC(=O)c4cc(OC)cc(OC)c4)ccc3n2)CC1	active: 13.1 µM	–

SMILES	Potency	activity change, negative = inhibition
COc1ccc(N2C(=O)CCSC23C(=O)N(Cc2ccc(F)cc2)c2ccccc23)cc1Cl (configuration not stated)	inconclusive [falling, single point]	–
O=C(O)CSc1nc2ccccc2nc1N1CCCCC1	inconclusive [falling, single point]	–
CC1Cc2cc(S(=O)(=O)CCC(=O)Nc3ccc(OC(F)(F)F)cc3)ccc2N1C(=O)C1CC1 (configuration not stated)	inconclusive [falling, partial curve, poor fit]	–
Cc1ccc(Cl)cc1NC(=O)CCn1cnc2ccccc2c1=O	inconclusive [falling, partial curve, poor fit]	–
COc1ccccc1C(=O)Nc1ccc(-c2cc(C(F)(F)F)nn2-c2ccccc2)cc1	inconclusive [falling, partial curve]	–
Cc1ccc2[nH]cc(C(c3ccccc3)c3ccc(Cl)s3)c2c1 (configuration not stated)	inconclusive [falling, single point]	–
Oc1ccc(NCc2ccccc2OCc2ccccc2)cc1	inconclusive [falling, partial curve, poor fit]	–
CCN1CCc2nc3sc(C(=O)Nc4ccccc4OC(F)(F)F)c(N)c3cc2C1	inconclusive [falling, partial curve, poor fit]	–
COc1ccc(CNc2oc(/C=C/c3cc(OC)c(OC)c(OC)c3)nc2C#N)cc1	inconclusive [falling, single point]	–
COc1ccc(CNC(=O)c2cc3cccc4c3n2CC(C)S4)cc1OC (configuration not stated)	–	inactive: 0.16%
COCCCn1c(SCC(=O)Nc2ccc(F)cc2)nc2c(sc3ccccc32)c1=O	–	inactive: 0.0652%
Fc1ccc(-c2csc(=Nc3cccc(C(F)(F)F)c3)n2Cc2ccc3c(c2)OCO3)cc1	inconclusive [falling, single point]	–
CCOc1ccc(-c2nnc(SCC(=O)NCc3ccc(C)cc3)nc2-c2ccc(OCC)c(OC)c2)cc1OC	–	inactive: 0.216%
CCc1nn2c(=O)cc(COC(=O)c3ccccc3NC(=O)COc3ccc(F)cc3)nc2s1	–	inactive: 14.5%
O=c1oc2ccccc2n1CCCOc1ccccc1Cl	–	inactive: -2.18%
CS(=O)(=O)N1CCc2cc(C(=O)Nc3ccc(Cl)c(C(F)(F)F)c3)ccc21	inconclusive [falling, single point]	–
O=C(C1CCC(CNS(=O)(=O)c2ccc(Br)s2)CC1)N1CCN(c2ccccc2Cl)CC1 (configuration not stated)	inconclusive [falling, full curve]	–
CCOc1cc(C(Nc2cc(C)ccn2)c2ccc3cccnc3c2O)ccc1OC (configuration not stated)	inconclusive [falling, single point]	–
Cc1ccccc1Nc1c(-c2c[nH]c3ccccc23)nc2ccccn12	inconclusive [falling, partial curve, poor fit]	–
O=c1c2oc3ccccc3c2n(Cc2ccccc2)c(=O)n1Cc1ccco1	–	inactive: -12.5%
